From publication PMC4336329 (PLoS ONE, 2015)
In all, about 310,000 compounds went through this assay and about 2,200 (0.71%) showed an effect of 50% or more. Effects have a minus sign here. The list shows a part of the results.

target: human ether-à-go-go-related gene (hERG) potassium channel (human, UniProt Q12809); test: primary screen, population patch clamp on CHO cells stably expressing hERG
Sequence (Q12809 whole entry, looked up): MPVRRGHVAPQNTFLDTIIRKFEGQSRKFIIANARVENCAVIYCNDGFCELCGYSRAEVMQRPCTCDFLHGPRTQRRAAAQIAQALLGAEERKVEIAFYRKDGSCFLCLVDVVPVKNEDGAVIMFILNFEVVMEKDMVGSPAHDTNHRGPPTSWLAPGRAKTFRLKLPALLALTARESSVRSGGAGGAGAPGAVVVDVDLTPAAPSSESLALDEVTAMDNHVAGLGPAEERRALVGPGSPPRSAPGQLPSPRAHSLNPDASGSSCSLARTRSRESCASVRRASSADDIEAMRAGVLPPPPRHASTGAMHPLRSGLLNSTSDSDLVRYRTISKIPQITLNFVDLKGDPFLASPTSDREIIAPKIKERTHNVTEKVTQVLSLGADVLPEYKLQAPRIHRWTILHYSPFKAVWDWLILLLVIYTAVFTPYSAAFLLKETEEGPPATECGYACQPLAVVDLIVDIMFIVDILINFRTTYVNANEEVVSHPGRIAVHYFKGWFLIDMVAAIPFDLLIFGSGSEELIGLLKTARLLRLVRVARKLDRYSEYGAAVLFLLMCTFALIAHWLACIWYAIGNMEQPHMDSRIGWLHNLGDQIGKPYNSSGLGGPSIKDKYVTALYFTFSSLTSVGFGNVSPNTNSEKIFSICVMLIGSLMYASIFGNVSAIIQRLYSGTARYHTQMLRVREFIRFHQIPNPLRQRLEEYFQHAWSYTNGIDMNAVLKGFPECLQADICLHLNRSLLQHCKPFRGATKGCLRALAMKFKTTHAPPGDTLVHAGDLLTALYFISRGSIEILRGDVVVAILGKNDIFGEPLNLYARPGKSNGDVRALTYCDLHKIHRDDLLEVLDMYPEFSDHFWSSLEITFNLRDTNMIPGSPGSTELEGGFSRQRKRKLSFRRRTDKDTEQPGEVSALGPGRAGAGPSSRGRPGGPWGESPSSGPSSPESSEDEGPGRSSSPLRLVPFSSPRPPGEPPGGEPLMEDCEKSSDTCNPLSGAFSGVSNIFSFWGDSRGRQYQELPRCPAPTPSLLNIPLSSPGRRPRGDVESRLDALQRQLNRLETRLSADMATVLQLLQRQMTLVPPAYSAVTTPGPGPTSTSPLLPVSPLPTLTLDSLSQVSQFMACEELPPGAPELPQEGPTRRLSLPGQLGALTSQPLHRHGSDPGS

Compound | hERG current change (%, negative = inhibition) at 1uM
Cc1cccc(NC(=S)NC(C)C(c2ccccc2)N2CCN(C)CC2)c1C (stereo not drawn) | -23.4%
Cc1ccc(/C=N/N=C2/NC(=O)C(CC(=O)Nc3ccc(Cl)cc3)S2)o1 (stereo not drawn) | 12%
CC(Oc1ccc(Br)cc1)C(=O)Nc1ccc(S(=O)(=O)N(C)C2CCN(C)CC2)cc1 (stereo not drawn) | 9.55%
CC(C)NC(=O)CCCn1cc([N+](=O)[O-])cn1 | 8.9%
O=C(c1ccc2c(c1)C(=O)N(Cc1ccco1)C2=O)N1CCOCC1 | 11.9%
CC(NC(=O)CN1CCOCC1)c1ccc(F)cc1 (stereo not drawn) | 6.68%
CC(C)(C)c1ccc(OCCC(=O)OCC(=O)NC2CC2)cc1 | 2.6%
Oc1ccccc1CN1CCCC(N2CCN(c3cccc(C(F)(F)F)c3)CC2)C1 (stereo not drawn) | 17.6%
CC(CN1CCOCC1)OC(=O)Cc1ccccc1.Cl (stereo not drawn) | 6.83%
O=C(/C=C/c1ccc(Br)cc1)N1CCN(c2cccc(C(F)(F)F)c2)CC1 | 2.55%
CCOc1ccc(S(=O)(=O)Nc2ccc(C(=O)NCC(c3ccco3)N(C)C)cc2)cc1 (stereo not drawn) | 1.38%
COc1ccc(N(C(C)C(=O)NC2CCCCCC2)S(C)(=O)=O)cc1 (stereo not drawn) | 5.83%
CC(C)C1Oc2ccccc2N(CC(=O)N2CCOCC2)C1=O (stereo not drawn) | 6.66%
CCCc1cc(=O)oc2cc(C)cc(OCC(=O)NC3CC3)c12 | 11.9%
CC(C)NC(=O)CSc1nc(-c2cccs2)cc(-c2ccccc2)c1C#N | 14.4%
CCCCNC(=O)c1ccccc1NC(=O)C1=C(C)OCCS1 | 6.8%
CC(=O)c1cccc(NC(=O)CN(c2cccc(F)c2)S(C)(=O)=O)c1 | 8.75%
CN(C)CCN(Cc1cc2cc3c(cc2[nH]c1=O)OCCO3)C(=S)NCC1CCCO1 (stereo not drawn) | 13.3%
COc1cc([N+](=O)[O-])ccc1NC(=O)CN(C)C | 3.66%

Compound | hERG current change (%, negative = inhibition) at 1uM
Clc1nnc(N/N=C/c2ccccc2)c2ccccc12 | -1.11%
CCOC(=O)C(C)n1cnc2c(nnn2-c2ccc(F)cc2)c1=O (stereo not drawn) | 6.1%
Cc1cc(C)cc(OCCCC(=O)O)c1 | 18.2%
Cc1cccc(-c2nnc(SCC(=O)N3c4ccccc4CCc4ccccc43)n2C)c1 | -0.61%
CCOc1ccccc1/C=N/NC(=O)C[n+]1ccccc1.[Cl-] | 3.98%
Cc1c(O)cc2c(c1O)C(=O)CC(c1ccc(O)cc1)O2 (stereo not drawn) | 5.99%
COc1cc(OC)nc(NC(=O)C(C)C)n1 | 12.2%
Cc1ccc(C(=O)OC2CCN(c3ccc([N+](=O)[O-])cc3)CC2)cc1 | 0.026%
COc1cccc(C(=O)NC(C)CCc2ccccc2)c1 (stereo not drawn) | 14%
CCc1ccc(C2=NN(c3ccc(S(N)(=O)=O)cc3)C(c3ccc(F)cc3)C2)cc1 (stereo not drawn) | 13.2%
CNC(=O)C1CC(=O)N(c2ccc(OCC(=O)Nc3ccc(OC)cc3)cc2)C1 (stereo not drawn) | 7.82%
CCN(CC)C(=O)Cn1cc(C(=O)C(=O)N2CCN(C)CC2)c2ccccc21 | 15.1%
CN1C(C(=O)NCc2ccc(OC(F)(F)F)cc2)CC2Cn3c(nc4cc5ccccc5cc43)C21 (stereo not drawn) | -14.7%
CSc1ncccc1C(=O)OCC(=O)c1ccccc1Br | 8.13%
C=C(C)C(=O)Nc1cccc(C2=NOC3(C2)C[C@H](C(N)=O)N(C(=O)c2ccccc2C(=O)c2ccccc2)C3)c1 (stereo partly drawn) | 1.18%
CCSc1nnc(NC(=O)CN(C)S(=O)(=O)c2ccc(F)cc2)s1 | 12%
O=C(CSc1nnc(-c2cccnc2)s1)Nc1cccc(C(=O)O)c1 | 1.24%
CCCOC(=O)C(C)n1cnc2sc(C)c(C)c2c1=O (stereo not drawn) | 11.1%
Cc1cc2ncn(C(=O)N3CCCCCC3)c2cc1C | 12.1%

Compound | hERG current change (%, negative = inhibition) at 1uM
Cc1ccccc1NCc1ccccc1O.Cl | 8.56%
COc1ccc(C(=O)NCCCNC(=O)c2cc3ccccc3[nH]2)cc1OC | 9.21%
COc1ccccc1CNC(=O)C/C(C)=N/NC(=O)Cc1ccc(OC)c(OC)c1 | 8.26%
COc1ccc(C(=O)c2sc(Nc3cccc(OC)c3)c(C(=O)Nc3cccc(C)c3C)c2N)cc1 | -5.14%
Cc1nc(SCC(=O)O)n[nH]1 | 11.7%
CN1CCN(CC(=O)N(Cc2c(C#N)c3ccccc3n2C)c2ccccc2)CC1 | 3.1%
O=C(NCc1cccc(F)c1)C1CCC(=O)N(CCCN2CCOCC2)C1 (stereo not drawn) | 12.3%
Cc1ccc(S(=O)(=O)N2CCN(S(=O)(=O)N(C)C)CC2)c(C)c1 | -0.392%
O=C(Nc1cccc2ccccc12)/C(=C/c1cccc([N+](=O)[O-])c1)NC(=O)c1cccs1 | -37.8%
Cc1cccc(C(=O)OC(C)CN2CCN(C)CC2)c1.Cl (stereo not drawn) | 2.27%
O=C(O)CC1c2ccccc2S(=O)(=O)N1Cc1ccccc1 (stereo not drawn) | 8.96%
N#CCCN(C(=O)COC(=O)c1ccc2ccccc2n1)c1ccccc1 | 11.8%
CCOC(CNC(=O)C1CCN(S(=O)(=O)c2ccc3nc4c(c(C(=O)O)c3c2)CCCCC4)CC1)OCC | 12.6%
COc1ccccc1NC(=O)C1=C(C)Nc2nnnn2C1c1ccncc1 (stereo not drawn) | -14.4%
Cc1onc(-c2c(Cl)cccc2Cl)c1C(=O)c1ccc(F)cc1 | 17.1%
CCCCNCc1cc(Cl)c(OCCC)c(OCC)c1.Cl | 6.8%
COc1cccc(CNc2nc(-c3cccnc3)nc3ccccc23)c1 | 7.15%
O=C1CCc2cc(S(=O)(=O)N3CCC(C(=O)NCCC4=CCCCC4)CC3)ccc2N1 | 5.5%
CN(C)C(CNC(=O)c1ccc2nc[nH]c2c1)c1ccccc1 (stereo not drawn) | 10.3%
